From PubChem BioAssay AID463173 (ICCB-Longwood Screening Facility, Harvard Medical School, 2010)
Hit rate of the full screen: of about 52,000 compounds, about 4,300 (8.3%) were called active. No stated cut-off is given here; in the data, active means survival mostly below about 52% (no sharp cut-off); inactive means mostly above about 56%. The list shows a part of the results.

System: DeltatarO mutant
Assay: S. aureus survival, RN4220 and DeltatarO strains – OD600, teichoic acid synthesis inhibitors, primary screen (AID 463173)
Conditions: S. aureus RN4220 wild type/DeltatarO growth, OD600, 18 h, active compounds read low, screened at 18.75 µg/mL (by protocol)

Compound	survival
Cc1ccc(/C(C#N)=C\c2cc(C)n(C)c2C)cc1	inactive: 81%
CCOC(=O)c1ccc(Oc2nc(C)nc3c2oc2ccccc23)cc1	inactive: 63%
O=C(/C=C/c1ccccc1)Nc1nc2n(n1)C(c1ccc(Cl)cc1)C=C(c1ccccc1)N2 (stereo not drawn)	active: 38%
Clc1ccc(CN2CCc3nc(N4CCN(c5ccccn5)CC4)ncc3C2)cc1	inactive: 86%
CC(=O)N1C(=O)NC(=O)C1(C)C	inactive: 92%
O=C(CN1C(=O)C2(SCC(=O)N2c2cccc(F)c2)c2ccccc21)NCc1ccccc1Cl (stereo not drawn)	inactive: 67%
Cc1ccc2ncc(C(=O)NCCc3ccc(S(N)(=O)=O)cc3)c(=O)n2c1	inactive: 102%
O=C1CCC(=O)N1c1ccccc1	inactive: 98%
Cc1cc2cc(C#N)c(N3CCOCC3)nc2cc1Cl	inactive: 77%
COc1ccc(CCNC(=O)CCCn2c(=O)c3ccccc3n(Cc3ccc(C)cc3)c2=O)cc1OC	inactive: 81%
COc1ccc(C)cc1NC(=O)COCc1cc(-c2cccs2)on1	inactive: 69%
CCOc1ccc(-c2cc(C#N)on2)cc1	inactive: 101%
CCOc1ccc(NC(=O)CSc2nc3c(c(=O)[nH]2)CCCC3)cc1	inactive: 62%
COc1cc(C2c3c(oc4ccc(F)cc4c3=O)C(=O)N2c2nc(C)c(C)s2)cc(OC)c1OC (stereo not drawn)	inactive: 157%
O=C(CCS(=O)(=O)c1cc(Br)cc2c1N(C(=O)C1CC1)CC2)N1CCN(c2ccc(F)cc2)CC1	inactive: 67%
Cc1ccc(N(C)C(=O)Cn2cnc3onc(-c4ccc(F)cc4)c3c2=O)cc1C	inactive: 73%
O=C(Nc1ccccc1)c1cnc[nH]1	inactive: 71%
CCC(=O)Nc1ccc(C)cc1-c1nc2ccccc2n(CC(=O)Nc2ccccc2Cl)c1=O	inactive: 75%
COc1cc(OC)cc(C(=O)Nc2ccc3oc(-c4ccccc4C)nc3c2)c1	active: 34%
COc1ccc(NC(=O)Cn2c(=O)n(CC3CCCO3)c(=O)c3ccccc32)c(OC)c1 (stereo not drawn)	inactive: 97%

Compound	survival
COc1cccc(-c2cc(C(=O)Nc3cc(C)nn3-c3ccccc3)no2)c1	inactive: 74%
CCN(CC)S(=O)(=O)c1nnc(NC(=O)c2ccccc2Cl)s1	inactive: 70%
CC(C)CNc1nc(NC(C)(C)C)nc(Oc2ccc(=O)n(-c3ccccc3)n2)n1	inactive: 68%
Cc1ccc(CCNC(=O)c2cc3c(=O)oc4ccccc4c3s2)cc1	inactive: 78%
Cc1nn2c(C)c(C(=O)N3CCN(c4ccccc4)CC3)cnc2c1-c1ccccc1	inactive: 94%
O=C(c1csc(Nc2ccccc2Cl)n1)N1CCCC1	inactive: 103%
COc1ccccc1OCCn1c(COc2cc(C)ccc2C)nc2ccccc21	inactive: 61%
COc1cc(NC(=O)CSc2nc3ccccc3nc2Cc2ccccc2OC)cc(OC)c1	inactive: 80%
C/C(=N\Nc1nc2sc3c(c2c2ncnn12)CC(C)(C)OC3)C(=O)O	inactive: 78%
COc1cccc(CNC(=O)CNS(=O)(=O)c2ccc3nc(C)sc3c2)c1	inactive: 82%
CC(C)/C=N/NC(=O)c1ccccc1	inactive: 78%
CCOc1ccccc1Nc1sc(C(=O)c2ccccc2)c(N)c1C(=O)NCCc1ccccc1	inactive: 99%
O=C(c1ccc(Cl)cc1)N(Cc1ccco1)Cc1ccco1	inactive: 97%
CCC(C)(C)NS(=O)(=O)c1cc(-c2cc(C)no2)ccc1C	inactive: 84%
CCN1c2ccccc2-c2nc(SCC(=O)Nc3cccc(C(F)(F)F)c3)ncc2S1(=O)=O	inactive: 70%
COc1cc(O)ccc1C1CC(=O)Nc2c1c(=O)nc(SCc1ccccc1C)n2C (stereo not drawn)	inactive: 93%
COc1ccc(CNc2oc(-c3ccc(COc4ccc(Cl)cc4)o3)nc2C#N)cc1	inactive: 97%
Cc1ccc(C)c(CN2C(=O)c3ccccc3S(=O)c3ccc(C(=O)N4CCC(C)CC4)cc32)c1 (stereo not drawn)	inactive: 85%
S=c1nc[nH]c2c1[nH]c1ccccc12	inactive: 103%
COc1ccc(CNC(=O)c2c(Nc3ccc(OC)cc3OC)sc(C(=O)c3ccc(Cl)cc3)c2N)cc1	inactive: 102%

Compound	survival
CCOC(=O)CSc1nc2sc3c(c2c(=O)n1Cc1ccccc1)CCC(C(C)(C)C)C3 (stereo not drawn)	inactive: 61%
COc1ccc2c(c1)c1c(c(=O)n(CCc3ccccc3)c(=O)n1Cc1ccccc1)n2C	inactive: 90%
O=C(c1cc2ccc3cccnc3c2[nH]1)N1CCN(c2cccc(C(F)(F)F)c2)CC1	active: 0%
Cc1ccc(NC(=O)c2oc3ccc(S(=O)(=O)N4CCCCC4)cc3c2C)cc1C	inactive: 84%
Cc1ccc(C)c2sc(NC(=O)c3ccc(S(=O)(=O)N4CCCC4)cc3)nc12	active: 25%
CC(=O)N1CCOc2cc(S(=O)(=O)NCc3ccc(C)cc3)c(C)cc21	inactive: 91%
COc1ccc(N(C(=O)c2ccccc2F)S(=O)(=O)c2ccc3c(c2)n(C)c(=O)n3C)cc1	inactive: 46%
Cc1c(CNCc2ccc(OC(C)C)cc2)c(C(=O)O)c(C)n1Cc1ccc(Cl)cc1	inactive: 98%
CCN1CCN(CCCNC(=O)c2cc3c(=O)n(CC)c4ccccc4c3s2)CC1	inactive: 97%
COc1ccc(CCNC(N)=S)cc1OC	inactive: 99%
COc1ccc(-c2cc(C(F)(F)F)nc(SCC(=O)N(C)Cc3ccccc3)n2)cc1OC	active: 33%
Cc1ccc2cc(CN(CC3CCCO3)C(=O)C(F)(F)F)c3nnnn3c2c1C (stereo not drawn)	inactive: 76%
O=C(Nc1cccc(-c2nc3ccccc3o2)c1)c1cc([N+](=O)[O-])ccc1N1CCOCC1	active: 42%
Cc1cccc(C)c1OCCSc1nc2ccccc2n1CC(=O)O	inactive: 83%
CCN(Cc1ccccc1)C(=O)Cn1c(=O)n(-c2ccc(F)c(Cl)c2)c(=O)c2sc3ccccc3c21	inactive: 89%
COc1ccc(-c2nc3c4cnn(-c5ccccc5F)c4ncn3n2)cc1	inactive: 59%
CC(=O)Nc1ccc(NS(=O)(=O)c2ccc3c(c2)CC(C)N3C(=O)C2CCC2)cc1 (stereo not drawn)	inactive: 85%
COC(=O)CC1Oc2ccc(F)cc2-n2cc(-c3ccc(Cl)cc3)nc21 (stereo not drawn)	inactive: 65%
